Assay results taken from PubChem BioAssay AID1745853 (National Center for Advancing Translational Sciences (NCATS), 2022).
The list shows a part of the results. The main result of the screen is listed elsewhere. These columns were measured beside it and carry no call.

How the values were obtained:
Assay in all cases: Primary Screen for Target Class Profiling of Small Molecule Inhibitors of Methyltransferases
[1] = molecular target: Glycine N-methyltransferase (Homo sapiens) (UniProt Q14749); settings: purified enzyme, MTase-Glo SAH luminescence; measured here: GNMT inhibition; at 40 µM; stronger effect = lower value
Outline: (§1)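 Each enzyme was assayed with SAM and its substrate. SAH formation detected by MTase-Glo luminescence; single-point 40 uM screen[…].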

[2] = molecular target: Guanidinoacetate N-methyltransferase (Homo sapiens) (UniProt Q14353); settings: purified enzyme, MTase-Glo SAH luminescence; measured here: GAMT inhibition; at 40 µM; stronger effect = lower value
Outline: as §1

[3] = molecular target: Histamine N-methyltransferase (Homo sapiens) (UniProt P50135); settings: purified enzyme, MTase-Glo SAH luminescence; measured here: HNMT inhibition; at 40 µM; stronger effect = lower value
Outline: as §1

[4] = molecular target: Nicotinamide N-methyltransferase (Homo sapiens) (UniProt P40261); settings: purified enzyme, MTase-Glo SAH luminescence; measured here: NNMT inhibition; at 40 µM; stronger effect = lower value
Outline: as §1

[5] = molecular target: Phenylethanolamine N-methyltransferase (Homo sapiens) (UniProt P11086); settings: purified enzyme, MTase-Glo SAH luminescence; measured here: PNMT inhibition; at 40 µM; stronger effect = lower value
Outline: as §1
On the % scale 0 is the no-effect control and ±100 the full control effect.

| Structure (SMILES) | activity change, negative = inhibition [1] [%] | activity change, negative = inhibition [2] [%] | activity change, negative = inhibition [3] [%] | activity change, negative = inhibition [4] [%] | activity change, negative = inhibition [5] [%] |
| --- | --- | --- | --- | --- | --- |
| Cc1ccc(S(=O)(=O)Nc2ccccc2N2CCCCC2)s1 | 2.11 | -0.787 | 11.5 | -13.6 | -1.89 |
| CCN1C(=O)c2c(C(=O)NCc3cc(Br)ccc3OC)ncn2CC1(C)C(=O)NC1CCCC1 (stereo not given) | -9.37 | 4.63 | 2.71 | 1.44 | -0.608 |
| O=c1c2ccccc2n2c(SCc3ccccc3)nnc2n1Cc1ccc(F)cc1 | 4.4 | 0 | 5.41 | 1.34 | 2.12 |
| O=C(c1cc(F)ccc1F)N1CCC(Cc2noc(C3CC3)n2)C1 (stereo not given) | -2.15 | -1.4 | 0.116 | -3.17 | -1.62 |
| CC1=C2CC(O)(C(C)(C)O)C(O[C@@H]3O[C@H](CO)[C@@H](O)[C@H](O)[C@H]3O)CC(C)C2CC1=O (stereo not given in full) | -0.514 | -0.663 | 10.5 | -9.86 | -7.71 |
| O=C1CN(Cc2cccc(Br)c2)S(=O)(=O)c2ccccc2N1Cc1ccccc1F | 16.5 | 2.31 | 12.4 | 7.4 | 10.3 |
| COc1ccc(NC(=O)N2Cc3[nH]cnc3C[C@H]2c2nc(-c3ccc(C(F)(F)F)cc3)no2)cc1 | -8.31 | -10.4 | -6.45 | -21.9 | -2.32 |
| O=C(Nc1ccccc1)N1Cc2c(sc3c2CCCC3)-n2cccc2C1c1ccccc1 (stereo not given) | -0.964 | 0.085 | 2.98 | -2.84 | 3.78 |
| CCCn1c(=O)c2cc(Cl)ccc2n2c(=O)n(CC(=O)c3ccc(C)cc3)nc12 | 9.18 | 0.043 | 4.88 | 10 | 8.19 |
| COC(=O)c1cc2n(n1)CCCN(C(=O)c1cc(C)nc3ccc(C)cc13)C2 | -1.02 | -6.65 | 0.168 | -8.13 | -5.22 |
| Fc1ccccc1OCc1nc(C2CCCNC2)no1 (stereo not given) | -4.42 | -10.2 | -4.97 | -10 | -13 |
| Cc1ccc(C(=O)N2CC[C@H](N3CCN(C)CC3)[C@H](CCCO)C2)cc1C | -4.5 | -3.85 | -2.08 | -5 | 7.66 |
| O=C(CCn1ccn2nc3c(c2c1=O)CCCC3)NCc1ccc(F)c(Cl)c1 | -3.77 | 1.59 | 0.035 | -17.2 | 12.9 |
| CSc1ccc(-c2cccc(C(=O)NCC(=O)N3CCOCC3)c2)cc1 | -4.5 | 1.81 | -5.41 | -6.44 | 7.88 |
| Cc1c(OCc2ccc(C(=O)O)o2)ccc2c(-c3ccccc3)cc(=O)oc12 | -41.5 | -5.92 | -2.8 | -16.1 | -29.8 |
| C[C@@H]1CN(Cc2ncccn2)C[C@H]1c1nc2c(cnn2C2CCOCC2)c(=O)[nH]1 | -4.28 | -9.88 | -6.61 | -17.5 | -9.22 |
| Cc1cc2c(cc1S(=O)(=O)Nc1cccc(C)c1C)n(C)c(=O)n2C | -4.79 | 3.06 | -10.4 | -11.3 | -6.16 |
| CC(C)CCNC(=O)C1(C)Cn2nc(C(=O)NCCc3ccco3)cc2C(=O)N1C (stereo not given) | 6.76 | 7.38 | 0.157 | 8.51 | 2.34 |
